# Experimental data reported in the supplement of paper PMC8728848.
# The other results are listed elsewhere or left out.
# How the values were obtained:
# Assay in all cases: glycan array binding signal (z-score within array); higher = stronger binding
# Settings in all cases: glycan notation: IUPAC condensed, linker removed
# [1] = molecular target: Fuc(a1-2)[GalNAc(b1-3)]Gal
# Procedure, shortened: (§1)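 Glycan array data came from 3228 arrays in the Consortium for Functional Glycomics database, and only arrays with an available protein sequence were kept. Glycan names were put into IUPAC-condensed notation, and columns mapping to the same glycan were averaged. The binding signal is a within-array Z-score, averaged across arrays of one protein sequence run at different concentrations or buffers and across linkers. A negative Z-score can be read as non-binding.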
# Fuc(a1-3)GlcNAc = molecular target: Fuc(a1-3)GlcNAc
# Procedure, shortened: as §1
# [2] = molecular target: Fuc(a1-3)[Gal(b1-4)]Glc6S
# Procedure, shortened: as §1
# [3] = molecular target: Fuc(a1-3)[Gal(b1-4)]GlcNAc
# Procedure, shortened: as §1
# [4] = molecular target: Fuc(a1-3)[Gal(b1-4)]GlcNAc(b1-2)Man
# Procedure, shortened: as §1
# [5] = molecular target: Fuc(a1-3)[Gal(b1-4)]GlcNAc(b1-2)Man(a1-3)[Fuc(a1-3)[Gal(b1-4)]GlcNAc(b1-2)Man(a1-6)]Man(b1-4)GlcNAc(b1-4)GlcNAc
# Procedure, shortened: as §1
# [6] = molecular target: Fuc(a1-3)[Gal(b1-4)]GlcNAc(b1-2)Man(a1-3)[Fuc(a1-3)[Gal(b1-4)]GlcNAc(b1-2)Man(a1-6)]Man(b1-4)GlcNAc(b1-4)[Fuc(a1-6)]GlcNAc
# Procedure, shortened: as §1
# [7] = molecular target: Fuc(a1-3)[Gal(b1-4)]GlcNAc(b1-3)Gal(b1-3)[Fuc(a1-4)]GlcNAc
# Procedure, shortened: as §1
# [8] = molecular target: Fuc(a1-3)[Gal(b1-4)]GlcNAc(b1-3)Gal(b1-4)[Fuc(a1-3)]GlcNAc
# Procedure, shortened: as §1
# [9] = molecular target: Fuc(a1-3)[Gal(b1-4)]GlcNAc(b1-3)Gal(b1-4)[Fuc(a1-3)]GlcNAc(b1-3)Gal(b1-4)[Fuc(a1-3)]GlcNAc
# Procedure, shortened: as §1
# [10] = molecular target: Fuc(a1-3)[Gal(b1-4)]GlcNAc(b1-3)GalNAc
# Procedure, shortened: as §1
# [11] = molecular target: Fuc(a1-3)[Gal(b1-4)]GlcNAc(b1-6)GalNAc
# Procedure, shortened: as §1
# [12] = molecular target: Fuc(a1-3)[Gal(b1-4)]GlcNAc(b1-6)[Gal(b1-3)GlcNAc(b1-3)]Gal(b1-4)Glc
# Procedure, shortened: as §1
# [13] = molecular target: Fuc(a1-3)[Gal(b1-4)]GlcNAc6S
# Procedure, shortened: as §1
# [14] = molecular target: Fuc(a1-3)[Gal3S(b1-4)]Glc
# Procedure, shortened: as §1
# [15] = molecular target: Fuc(a1-3)[Gal3S(b1-4)]GlcNAc
# Procedure, shortened: as §1
# [16] = molecular target: Fuc(a1-3)[Gal3S(b1-4)]GlcNAc6S
# Procedure, shortened: as §1
# [17] = molecular target: Fuc(a1-3)[GalNAc(b1-4)]GlcNAc
# Procedure, shortened: as §1
# [18] = molecular target: Fuc(a1-3)[GalNAc(b1-4)]GlcNAc6S
# Procedure, shortened: as §1
# Fuc(a1-4)GlcNAc = molecular target: Fuc(a1-4)GlcNAc
# Procedure, shortened: as §1
# Fuc(b1-3)GlcNAc = molecular target: Fuc(b1-3)GlcNAc
# Procedure, shortened: as §1
# Gal(a1-2)Gal = molecular target: Gal(a1-2)Gal
# Procedure, shortened: as §1
# Gal(a1-3)Gal = molecular target: Gal(a1-3)Gal
# Procedure, shortened: as §1
# Gal(a1-3)Gal(b1-3)GlcNAc = molecular target: Gal(a1-3)Gal(b1-3)GlcNAc
# Procedure, shortened: as §1
# [19] = molecular target: Gal(a1-3)Gal(b1-3)GlcNAc(b1-2)Man
# Procedure, shortened: as §1
# [20] = molecular target: Gal(a1-3)Gal(b1-3)GlcNAc(b1-2)Man(a1-3)[Gal(a1-3)Gal(b1-3)GlcNAc(b1-2)Man(a1-6)]Man(b1-4)GlcNAc(b1-4)GlcNAc
# Procedure, shortened: as §1
# [21] = molecular target: Gal(a1-3)Gal(b1-3)GlcNAc(b1-3)GalNAc
# Procedure, shortened: as §1
# [22] = molecular target: Gal(a1-3)Gal(b1-3)GlcNAc(b1-6)GalNAc
# Procedure, shortened: as §1
# [23] = molecular target: Gal(a1-3)Gal(b1-3)[Fuc(a1-4)]GlcNAc(b1-2)Man(a1-3)[Gal(a1-3)Gal(b1-3)[Fuc(a1-4)]GlcNAc(b1-2)Man(a1-6)]Man(b1-4)GlcNAc(b1-4)GlcNAc
# Procedure, shortened: as §1
# Gal(a1-3)Gal(b1-4)Glc = molecular target: Gal(a1-3)Gal(b1-4)Glc
# Procedure, shortened: as §1
# Gal(a1-3)Gal(b1-4)GlcNAc = molecular target: Gal(a1-3)Gal(b1-4)GlcNAc
# Procedure, shortened: as §1
# [24] = molecular target: Gal(a1-3)Gal(b1-4)GlcNAc(b1-2)Man
# Procedure, shortened: as §1
# [25] = molecular target: Gal(a1-3)Gal(b1-4)GlcNAc(b1-2)Man(a1-3)[Gal(a1-3)Gal(b1-4)GlcNAc(b1-2)Man(a1-6)]Man(b1-4)GlcNAc(b1-4)GlcNAc
# Procedure, shortened: as §1
# [26] = molecular target: Gal(a1-3)Gal(b1-4)GlcNAc(b1-3)GalNAc
# Procedure, shortened: as §1
# [27] = molecular target: Gal(a1-3)Gal(b1-4)GlcNAc(b1-6)GalNAc
# Procedure, shortened: as §1
# [28] = molecular target: Gal(a1-3)Gal(b1-4)[Fuc(a1-3)]GlcNAc
# Procedure, shortened: as §1
# [29] = molecular target: Gal(a1-3)Gal(b1-4)[Fuc(a1-3)]GlcNAc(b1-2)Man(a1-3)[Gal(a1-3)Gal(b1-4)[Fuc(a1-3)]GlcNAc(b1-2)Man(a1-6)]Man(b1-4)GlcNAc(b1-4)GlcNAc
# Procedure, shortened: as §1
# Gal(a1-3)GalNAc = molecular target: Gal(a1-3)GalNAc
# Procedure, shortened: as §1
# [30] = molecular target: Gal(a1-3)[Gal(a1-4)]Gal(b1-4)GlcNAc
# Procedure, shortened: as §1
# [31] = molecular target: Gal(a1-4)Gal(b1-3)GlcNAc(b1-2)Man(a1-3)[Gal(a1-4)Gal(b1-3)GlcNAc(b1-2)Man(a1-6)]Man(b1-4)GlcNAc(b1-4)GlcNAc
# Procedure, shortened: as §1
# Gal(a1-4)Gal(b1-4)Glc = molecular target: Gal(a1-4)Gal(b1-4)Glc
# Procedure, shortened: as §1
# Gal(a1-4)Gal(b1-4)GlcNAc = molecular target: Gal(a1-4)Gal(b1-4)GlcNAc
# Procedure, shortened: as §1
# [32] = molecular target: Gal(a1-4)Gal(b1-4)GlcNAc(b1-2)Man(a1-3)[Gal(a1-4)Gal(b1-4)GlcNAc(b1-2)Man(a1-6)]Man(b1-4)GlcNAc(b1-4)GlcNAc
# Procedure, shortened: as §1
# [33] = molecular target: Gal(a1-4)Gal(b1-4)GlcNAc(b1-3)Gal(b1-4)Glc
# Procedure, shortened: as §1
# Gal(a1-4)GlcNAc = molecular target: Gal(a1-4)GlcNAc
# Procedure, shortened: as §1
binder,measurement,setting,value
APVPVTKLVCDGDTYKCTAYLDFGDGRWVAQWDTNVFHTG [PhoSpL (Pholiota squarrosa)],glycan array binding signal (z-score),[1],-0.219
same,glycan array binding signal (z-score),Fuc(a1-3)GlcNAc,-0.427
same,glycan array binding signal (z-score),[2],-0.01
same,glycan array binding signal (z-score),[3],-0.102
same,glycan array binding signal (z-score),[4],-0.336
same,glycan array binding signal (z-score),[5],-0.201
same,glycan array binding signal (z-score),[6],0.115
same,glycan array binding signal (z-score),[7],0.149
same,glycan array binding signal (z-score),[8],0.155
same,glycan array binding signal (z-score),[9],-0.179
same,glycan array binding signal (z-score),[10],-0.025
same,glycan array binding signal (z-score),[11],-0.044
same,glycan array binding signal (z-score),[12],0.04
same,glycan array binding signal (z-score),[13],-0.386
same,glycan array binding signal (z-score),[14],-0.011
same,glycan array binding signal (z-score),[15],-0.157
same,glycan array binding signal (z-score),[16],-0.255
same,glycan array binding signal (z-score),[17],0.075
same,glycan array binding signal (z-score),[18],-0.004
same,glycan array binding signal (z-score),Fuc(a1-4)GlcNAc,-0.128
same,glycan array binding signal (z-score),Fuc(b1-3)GlcNAc,-0.271
same,glycan array binding signal (z-score),Gal(a1-2)Gal,-0.168
same,glycan array binding signal (z-score),Gal(a1-3)Gal,0.196
same,glycan array binding signal (z-score),Gal(a1-3)Gal(b1-3)GlcNAc,-0.254
same,glycan array binding signal (z-score),[19],-0.221
same,glycan array binding signal (z-score),[20],0.324
same,glycan array binding signal (z-score),[21],-0.303
same,glycan array binding signal (z-score),[22],-0.023
same,glycan array binding signal (z-score),[23],-0.042
same,glycan array binding signal (z-score),Gal(a1-3)Gal(b1-4)Glc,0.101
same,glycan array binding signal (z-score),Gal(a1-3)Gal(b1-4)GlcNAc,-0.143
same,glycan array binding signal (z-score),[24],-0.259
same,glycan array binding signal (z-score),[25],-0.429
same,glycan array binding signal (z-score),[26],0.034
same,glycan array binding signal (z-score),[27],-0.433
same,glycan array binding signal (z-score),[28],-0.533
same,glycan array binding signal (z-score),[29],0.563
same,glycan array binding signal (z-score),Gal(a1-3)GalNAc,-0.292
same,glycan array binding signal (z-score),[30],-0.257
same,glycan array binding signal (z-score),[31],-0.039
same,glycan array binding signal (z-score),Gal(a1-4)Gal(b1-4)Glc,-0.062
same,glycan array binding signal (z-score),Gal(a1-4)Gal(b1-4)GlcNAc,-0.29
same,glycan array binding signal (z-score),[32],0.1
same,glycan array binding signal (z-score),[33],-0.466
same,glycan array binding signal (z-score),Gal(a1-4)GlcNAc,0.167
